Source: article PMC4336329 (PLoS ONE, 2015)
In all, about 310,000 compounds went through this assay and about 2,200 (0.71%) showed an effect of 50% or more. Effects have a minus sign here. The list shows a part of the results.

What follows are molecules tested against human ether-à-go-go-related gene (hERG) potassium channel (human, UniProt Q12809) (assay: primary screen, population patch clamp on CHO cells stably expressing hERG).
Sequence of human ether-à-go-go-related gene (hERG) potassium channel (Q12809 whole entry, looked up): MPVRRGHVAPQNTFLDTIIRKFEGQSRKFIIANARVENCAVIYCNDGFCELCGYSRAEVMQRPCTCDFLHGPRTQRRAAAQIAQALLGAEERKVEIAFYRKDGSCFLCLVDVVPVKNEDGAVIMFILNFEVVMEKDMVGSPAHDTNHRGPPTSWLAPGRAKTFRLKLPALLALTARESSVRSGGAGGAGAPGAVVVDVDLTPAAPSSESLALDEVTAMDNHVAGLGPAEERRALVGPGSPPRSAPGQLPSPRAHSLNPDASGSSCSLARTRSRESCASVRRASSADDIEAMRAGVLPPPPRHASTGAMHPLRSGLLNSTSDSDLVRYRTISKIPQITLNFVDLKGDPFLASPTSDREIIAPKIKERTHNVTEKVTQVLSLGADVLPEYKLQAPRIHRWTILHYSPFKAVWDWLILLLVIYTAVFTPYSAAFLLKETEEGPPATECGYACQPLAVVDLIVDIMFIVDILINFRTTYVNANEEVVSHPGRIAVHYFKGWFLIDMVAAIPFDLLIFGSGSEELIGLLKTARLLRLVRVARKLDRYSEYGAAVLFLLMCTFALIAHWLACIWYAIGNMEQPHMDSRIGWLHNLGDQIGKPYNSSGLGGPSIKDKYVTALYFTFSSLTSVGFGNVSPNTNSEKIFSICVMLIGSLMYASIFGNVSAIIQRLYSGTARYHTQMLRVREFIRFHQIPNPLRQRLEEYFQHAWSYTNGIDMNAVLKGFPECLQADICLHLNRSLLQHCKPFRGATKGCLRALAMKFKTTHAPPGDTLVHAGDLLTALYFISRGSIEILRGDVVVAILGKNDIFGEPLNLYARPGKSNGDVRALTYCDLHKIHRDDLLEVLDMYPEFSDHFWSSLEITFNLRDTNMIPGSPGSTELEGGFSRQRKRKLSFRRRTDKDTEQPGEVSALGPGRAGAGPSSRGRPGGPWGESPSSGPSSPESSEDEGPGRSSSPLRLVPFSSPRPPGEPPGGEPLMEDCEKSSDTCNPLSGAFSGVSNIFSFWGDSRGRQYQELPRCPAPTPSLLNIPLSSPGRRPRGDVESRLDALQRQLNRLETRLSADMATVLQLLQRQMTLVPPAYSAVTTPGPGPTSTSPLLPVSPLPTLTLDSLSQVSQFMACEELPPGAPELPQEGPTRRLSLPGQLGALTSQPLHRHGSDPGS

Compound | hERG current change (%, negative = inhibition) at 1uM [%]
CCC(C)(C)NC(=O)c1ccc(S(=O)(=O)N2CCCCCC2)cc1 | 4.06
Cl.Clc1ccc(Nc2nc(N3CCOCC3)nc(N3CCOCC3)n2)cc1Cl | 8.3
COc1ccc(C2C(C#N)=C(N)Oc3n[nH]c(C)c32)cc1CN1CCN(c2ccc(F)cc2)CC1 (stereo not shown) | -2.41
O=c1cc(CNCCCO)c2ccccc2[nH]1 | 1.94
Cc1cccnc1NC(=S)NC(=O)c1cncc(Br)c1 | 7.66
CCOC(=O)c1ccc(-c2csc(NC(=O)CN3CCC(C)CC3)n2)cc1 | 7.99
O=[N+]([O-])c1cc(C(F)(F)F)ccc1N1CCCNCC1 | -2.85
O=C(CN1CCN(c2ccc(O)cc2)CC1)Nc1ccc2c(c1)OCCCO2 | 4.42
O=C(CSc1oc(-c2ccccc2)nc1S(=O)(=O)c1ccc(F)cc1)NCC1CCCO1 (stereo not shown) | 2.85
CC(C)(Oc1ccc(Cl)cc1)C(=O)OCc1nc2ccsc2c(=O)[nH]1 | 1.3
COc1ccc(C(=O)Nc2ccccc2-c2nnn(CC(=O)N3CCOCC3)n2)cc1 | -4.6
Cc1ccc(NC(=O)COC(=O)c2ccc(-n3cnnn3)cc2)c(Br)c1 | 6.08
O=C(Nc1ccc(F)cc1)c1cc(-c2ccccc2)no1 | 8.73
Cc1cc(S(=O)(=O)NCc2ccccc2)ccc1OCC(=O)Nc1cccc([N+](=O)[O-])c1 | 5.87
Cc1cc2oc(C(=O)N(Cc3ccco3)C3CCS(=O)(=O)C3)cc(=O)c2cc1Cl (stereo not shown) | -1.14
CCOC(=O)C1CCCN(C(=O)C2CCN(S(=O)(=O)c3cnc[nH]3)CC2)C1 (stereo not shown) | 14.3
c1ccc2c(c1)CNc1ccccc1O2 | 6.23
COc1ccccc1N(C)S(=O)(=O)c1ccc(C(=O)OCC(=O)N2CCCCCC2)cc1 | 8
N#CC1=C(N)OC2=C(C(=O)CCC2)C1c1ccc(OC(=O)N2CCOCC2)cc1 (stereo not shown) | 5.89
O=S(=O)(c1ccc(Cl)cc1)N1CCN(CCc2ccccc2)CC1 | 10.6
Cc1ccc(C2CC(c3cccs3)=NN2C(=O)c2ccco2)o1 (stereo not shown) | -8.32
CCOC(=O)CSc1nnc(NC(=O)c2cccc(S(=O)(=O)N3CCCCC3)c2)s1 | 15.2

Compound | hERG current change (%, negative = inhibition) at 1uM [%]
COc1ccc(/C=C/c2nc3ccccc3n2C)cc1 | 1.95
CC(C)N(CCO)C(=O)CCc1nnc(Cc2cccc(C(F)(F)F)c2)o1 | -9.61
Cc1ccc(CN(C)C(=O)c2cc(Br)c(Br)s2)o1 | 13.9
COc1ccc(NC(=O)CSc2nnc(Cc3cccn3C)n2-c2ccc(F)cc2)cc1 | -4.59
CCc1nc(Nc2ccccc2)c2nnn(Cc3ccccc3)c2n1 | 10.5
CCN(CC)c1ccc(S(=O)(=O)N2CCOCC2)cc1NC(=O)COC(=O)COc1ccccc1C | 11.5
COc1ccc(S(=O)(=O)N2CCc3ccccc32)cc1C(=O)Nc1cccnc1 | -0.445
COc1cc(/C=N/N=C(\N)c2nonc2N)cc(OC)c1O | 14.1
CCC1(CC)NC(=O)N(CC(=O)OC(C)C(=O)Nc2ccc(Cl)cn2)C1=O (stereo not shown) | -6
O=C(COc1ccc(Cl)cc1)NNC(=O)C(=O)NC1CCCCC1 | 10.9
CC1CCCCN1CCCNC(=O)CN1C(=O)CSc2ccc(S(=O)(=O)N3CCOCC3)cc21 (stereo not shown) | 19.5
COc1cc(C(=O)NCC(c2cccnc2)N2CCN(c3ccc(F)cc3)CC2)cc(OC)c1OC (stereo not shown) | 6.81
CCc1ccccc1NC(=O)c1onc(C)c1Cl | 14.5
CCOC(=O)N1CCN(C(=O)c2cn(CC)c3ccc(S(=O)(=O)N4CCCCC4)cc3c2=O)CC1 | 6.9
CCC(=O)c1ccc(OCC(O)Cn2nnc3ccccc32)cc1 (stereo not shown) | -2.1
COc1ccccc1NC(=O)CSc1ccc(-c2ccccn2)nn1 | 16.8
Cn1c(=O)c2c(nc(Cc3ccccc3)n2C)n(C)c1=O | 11.3
CCc1cc(C(=O)N(CC(C)C)c2c(N)n(Cc3ccccc3)c(=O)[nH]c2=O)sc1C | -11.3
CCn1c(SCC(=O)NCc2ccc3c(c2)OCO3)nnc1-c1cccs1 | -12.2
CC(C)COc1ccc(CN=C(N)N=C(N)N)cc1Cl.Cl | 6.41
Nn1cc(-c2ccccc2)nc1SCC(=O)N1CCN(S(=O)(=O)c2ccccc2)CC1 | 0.236
